This is an account of results in PubChem BioAssay AID488969 (Vanderbilt High Throughput Screening Facility, 2010).

Molecules are shown by their SMILES. In all, about 110,000 compounds were measured (“z-score”: median about -0.1, highest 2% from about 2 on). This is one part of the list.

The test concerns the target Metabotropic glutamate receptor 8 (Rattus norvegicus) (UniProt P70579). Briefly: rat mGluR8 modulators via GIRK flux, primary screen, cell-based, thallium flux, HTS (AID 488969). To be noted: HEK293 rat mGluR8, GIRK (G protein-gated inwardly rectifying potassium channel) thallium flux, FluoZin2; at 10 µM; stronger effect = higher value; submaximal glutamate (EC20) added with thallium.
Chain of UniProt P70579 (P70579 whole entry, looked up): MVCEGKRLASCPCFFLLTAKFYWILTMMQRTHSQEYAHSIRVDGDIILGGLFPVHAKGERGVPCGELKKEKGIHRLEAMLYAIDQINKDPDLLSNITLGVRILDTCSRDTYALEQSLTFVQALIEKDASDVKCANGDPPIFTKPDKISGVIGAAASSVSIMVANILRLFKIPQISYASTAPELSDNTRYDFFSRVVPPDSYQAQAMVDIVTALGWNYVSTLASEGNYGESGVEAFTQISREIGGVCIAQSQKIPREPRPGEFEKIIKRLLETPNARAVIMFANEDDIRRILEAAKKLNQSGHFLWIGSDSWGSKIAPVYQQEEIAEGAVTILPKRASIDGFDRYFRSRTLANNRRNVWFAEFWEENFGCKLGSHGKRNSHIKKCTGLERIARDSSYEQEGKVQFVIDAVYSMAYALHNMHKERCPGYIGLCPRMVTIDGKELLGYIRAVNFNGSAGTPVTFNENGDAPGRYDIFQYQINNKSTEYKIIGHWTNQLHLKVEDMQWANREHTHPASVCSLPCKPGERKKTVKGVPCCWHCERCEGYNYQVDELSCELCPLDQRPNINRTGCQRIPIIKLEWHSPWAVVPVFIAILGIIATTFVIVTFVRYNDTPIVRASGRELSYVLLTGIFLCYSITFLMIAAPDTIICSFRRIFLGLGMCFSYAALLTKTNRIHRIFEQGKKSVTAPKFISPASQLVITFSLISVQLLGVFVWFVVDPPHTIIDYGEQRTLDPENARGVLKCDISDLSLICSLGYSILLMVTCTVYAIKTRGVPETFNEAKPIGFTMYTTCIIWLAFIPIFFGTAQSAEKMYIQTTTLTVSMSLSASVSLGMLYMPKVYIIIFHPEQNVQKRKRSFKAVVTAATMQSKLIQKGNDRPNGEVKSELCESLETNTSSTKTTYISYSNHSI
As for `CC(c1ccco1)N(C(=O)c1ccccc1NS(=O)(=O)c1ccc(Cl)c([N+](=O)[O-])c1)c1ccccn1` (stereo not given), the z-score came out at 0.843.

Consider `O=C(O)C1C2C=CC(O2)C1C(=O)NCCCn1ccnc1` (stereo not given), for which the z-score turned out to be 0.447.

`COc1nc(Oc2ccc(/C=N/O)cc2)nc(N(C)C)n1`: the z-score amounted to 0.353.

Compound `CC(=O)Nc1c(O)nc(SCc2ccc(Cl)cc2)[nH]c1=O` showed a z-score of -0.153.

For `Cc1ccccc1-n1c(=O)cc(NCC2CCCO2)[nH]c1=O` (stereo not given), the z-score was -0.131.

Compound `CCOc1ccc(-c2ccc(/C=C3/C(=N)N4C(C)=CSC4=NC3=O)o2)c([N+](=O)[O-])c1` registered a z-score of 0.967.

`CCc1ccc(Nc2nnc(SCn3nnc4ccccc4c3=O)s2)cc1` returned a z-score of -0.292.

As to `CCOc1ccc(NC(=O)c2cccc(OC(=S)N3CCC(C)CC3)c2)cc1`, the z-score is -0.531.

Compound `Cc1ccc(C(=O)Nc2ccccc2-c2ccccc2)o1` showed a z-score of -0.497.

In turn, `COc1ccc(/C=C/C(=O)NC(C)(C)C)cc1S(=O)(=O)N1CCOCC1` returned a z-score of 0.164.

As to `O=C(COC(=O)C1CC1)c1c[nH]c2ccccc12`, the z-score came to 0.139.

Take `COc1ccc(CNC(C)C2COc3ccccc3O2)c(OC)c1` (stereo not given): the z-score stood at 0.00937.

`CCOC(=O)CNC(=O)COc1ccc(Cl)cc1Br` displayed a z-score of -2.87.

The compound `COC(=O)C1=C(C)N(C)C(=O)NC1c1ccccc1` (stereo not given) yielded a z-score of -0.573.

In turn, `CN(CCNC(=O)c1cc2c(=O)n(C)c3ccccc3c2n1C)Cc1ccccc1` yielded a z-score of 2.77.

`CCn1c2ccccc2c2cc(NC(C)=O)ccc21` returned a z-score of -0.326.

Compound `Cc1cc(C)nc(SCC(=O)Nc2ccc(S(=O)(=O)Nc3nccs3)cc2)n1` yielded a z-score of -1.49.

For `O=C(Oc1ccc(OC(=O)N2CCCCC2)cc1)c1ccccc1`, the z-score was 0.0923.

`CCOc1ccc2nc(SCC(=O)N(C)C)[nH]c2c1` displayed a z-score of -0.0593.

`COc1ccc(OC)c(C(=O)COC(=O)c2cc(C)oc2C)c1` yielded a z-score of -0.457.

The compound `Cc1nn2c(SCC(=O)c3cccs3)cc(C(C)(C)C)nc2c1-c1ccccc1` had a z-score of -0.127.

As to `CC(C)CN(CCNC(=O)CC1Oc2ccccc2NC1=O)CC(C)C` (stereo not given), the z-score was -0.31.

In turn, `O=C(C(c1ccccc1)c1ccccc1)N1CCOCC1` yielded a z-score of 0.121.

`O=C(c1cc2ccccc2oc1=O)N(Cc1ccc2c(c1)OCO2)Cc1ccco1` registered a z-score of -0.216.

For `CSc1nnc(-c2cc3c(-c4ccccc4)nn(C)c3s2)n1C`, the z-score is -0.258.

With `COc1ccc(NC(=O)C2CCCN(S(=O)(=O)c3cccc4cccnc34)C2)c(OC)c1` (stereo not given), the z-score is -0.00108.

`Cc1n[nH]c(C)c1CCc1nc2c3ccccc3nc(SCC(N)=O)n2n1` came in with a z-score of -0.148.

With `COc1ccc(-n2c(=O)[nH]cc(C(=O)N3CCc4ccccc43)c2=O)cc1`, the z-score is 1.3.

`Cc1nn(Cc2ccc(F)cc2)c(C)c1NC(=O)c1cccnc1Cl` returned a z-score of 0.0276.

`CC(Sc1ccccn1)C(=O)Nc1ccccc1` (stereo not given) had a z-score of -0.408.

Take `O=C(COc1ccc2ccccc2c1)Nc1ccc2c3c(cccc13)CC2`: the z-score was found to be 0.0158.

`Brc1ccc(-c2nnc(-c3ccccc3)o2)o1` came in with a z-score of 0.557.

The compound `CCOC(=O)Cc1c(C)nc2cc(-c3ccc(C(C)(C)C)cc3)[nH]n2c1=O` showed a z-score of -0.186.

For the compound `COCC(=O)Nc1cccc(Br)c1`, the z-score worked out at 0.166.

`Cc1cccc(C)c1NC(=O)Cn1c(=O)n(CCC(=O)NCc2ccco2)c(=O)c2sccc21`: the z-score is -0.176.

Take `O=C(CSc1nc2ccccc2[nH]1)Nc1nc(-c2cccc(Br)c2)cs1`: the z-score was -0.171.

As for `O=C(O)CN1CCN(Cc2ccccc2)C1=O`, the z-score was -0.122.

For `O=C(NCC(c1cccs1)N1CCOCC1)c1ccccc1NS(=O)(=O)c1ccc(Cl)c([N+](=O)[O-])c1` (stereo not given), the z-score is -0.572.

`CC1=C(C(=O)OC2CCCCCCC2)C(c2cccc(O)c2)NC(=O)N1` (stereo not given) had a z-score of 0.191.

Take `Cc1ccc(/C=C/C(=O)N2CCN(c3cccc(C(F)(F)F)c3)CC2)cc1`: the z-score is -0.0624.

`CCN1CCN(Cc2c(O)ccc3c2O/C(=C\C=C\c2ccccc2OC)C3=O)CC1` had a z-score of 1.76.

Compound `COc1ccc(OC)c(S(=O)(=O)Nc2ccc(OCC(=O)O)cc2)c1` came in with a z-score of -0.172.

Compound `O=C(/C=C1\NC2(CCCC2)Cc2ccccc21)C(=O)N/N=C/c1ccc(O)c(O)c1` displayed a z-score of -0.657.

Turning to `O=c1c2c(nc(NCCO)n1CC1CCCCC1)-c1ccccc1CC21CCCC1`, the z-score came out at 0.132.

The compound `O=C(NCCc1ccccc1)c1nc2c(nnn2Cc2ccccc2Cl)c(=O)[nH]1` registered a z-score of -2.3.

`CCOC(=O)Cc1csc(NC(=O)CSc2nnc(-c3ccncc3)n2Cc2ccco2)n1` registered a z-score of -0.608.

For `CCOc1ccc(CN2CCN(c3cc(C)nc4c5c(C)cc(C)nc5nn34)CC2)cc1`, the z-score came out at 0.115.

Take `COc1ccc(-c2ccc(-c3nnc(Cc4ccc(OC)c(OC)c4)o3)cc2)cc1`: the z-score was 0.983.

Regarding `Cc1sc2nc(-c3cccnc3)nc(Cl)c2c1-c1ccccc1`, the z-score was -0.11.

`N#Cc1nc(-c2ccccc2F)oc1N1CCCC1` gave a z-score of -0.139.

The compound `COc1ccc2c(c1)SC1=NCCS(=O)(=O)N12` showed a z-score of 0.27.

Consider `CC(C)(C)NC(=O)c1ccncc1`, for which the z-score is -0.0181.

On to `N#Cc1ccc(-c2csc(NNC(=O)c3ccccc3)n2)cc1`, for which the z-score was -0.283.

`COc1ccc(C2CC(c3ccc(Cl)cc3Cl)Nc3nc(N)nn32)cc1` (stereo not given): the z-score is 1.46.

Take `CCC(=O)Nc1ccc(NC(=O)C23CC4CC(CC(C4)C2)C3)cn1`: the z-score is -0.0944.

`O=C(Nc1nc2ccccc2[nH]1)C12CC3CC(CC(C3)C1)C2` registered a z-score of 0.258.

Compound `CC(C(=O)N1CCOCC1)N1C(=O)C2C3CC(C(Br)C3Br)C2C1=O` (stereo not given) displayed a z-score of -0.258.

Turning to `CCC(CC)C(=O)N(CCc1ccc(OC)cc1)Cc1nc2ccccc2c(=O)[nH]1`, the z-score is -0.378.

As to `O=c1c2ccccc2c(C=NCCCN2CCOCC2)c(O)n1Cc1ccccc1`, the z-score was -0.181.

For `C=C(C)C(C)(C#CCN1CCCC1)OC(C)=O` (stereo not given), the z-score is -0.061.

For `Cc1cc(Nc2ccccc2)n(CCO)n1`, the z-score is -0.342.

Compound `Clc1ccc(-c2nnc3sc(-c4ccccn4)nn23)cc1` gave a z-score of -0.712.

Take `COc1cc(OC)cc(C(=O)Nc2ccccc2C(=O)N2CCCC2)c1`: the z-score is -0.915.

With `CCCCN(C)Cc1c(C)[nH]c2ccc(C)cc2c1=O`, the z-score was 0.122.

For `Nc1nc(Cl)cc(Sc2ccc3ccccc3c2)n1`, the z-score is -0.0266.

`Cc1ccc(NC(=S)NC(=O)/C=C/c2ccc(Cl)cc2)cc1` came in with a z-score of -0.012.

With `O=C(NCCN1CCN(c2ccccc2F)CC1)C1c2ccccc2C(=O)N2CCc3ccccc3C12` (stereo not given), the z-score is -0.308.

In turn, `COc1ccc(C(=O)Nc2ccc(C(F)(F)F)n(C)c2=O)cc1` yielded a z-score of 0.0843.

`COc1ccccc1-n1c(=O)c2c3c(sc2n2c(SC)nnc12)CCC3` had a z-score of -0.196.

In turn, `O=C(NC1CCCCC1)c1ccc(S(=O)(=O)c2ccccc2Cl)c([N+](=O)[O-])c1` came in with a z-score of -0.192.
